In PubChem BioAssay AID651820 (National Center for Advancing Translational Sciences (NCATS), 2012):
Hit rate of the full screen: of about 340,000 compounds, about 12,000 (3.5%) were called active. The shares of active, inactive and inconclusive entries below differ from those in the screen. The call rests on the fitted dose curve; in most records, active means well fitted inhibition curve with a large enough effect; inconclusive means small, poorly fitted or top-dose-only effect, or another doubt; inactive means no such curve, though single readings can be large or run the other way. Potencies of inconclusive entries are left out as doubtful fits.

Test: qHTS Assay for Inhibitors of Hepatitis C Virus (HCV)
Settings: Huh7.5.1 HCVcc-Cre (HCVcc is cell-culture hepatitis C virus) infection, luciferase reporter, 44 h; series mostly up to 41.8 µM
How it was run: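 1,000 cells/well; 4 h culture; + compound; + HCVcc-Cre (~0.5 moi); 44 h; luciferase substrate, RT 15 min; read 15 sec.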
Potency means the concentration at half of the fitted maximal effect; tags describe the fitted curve by direction and shape.

Compound	Potency
O=C(CN(C(=O)c1cccc([N+](=O)[O-])c1)C1CCCCC1)Nc1ccc(Cl)c([N+](=O)[O-])c1	inconclusive [inhibitor, single point]
CN=C1SC(CC(=O)Nc2ccc(F)cc2F)C(=O)N1/N=C(\C)c1cccc(OCC(=O)O)c1 (stereo unspecified)	inactive
Cc1ccc(S(=O)(=O)N(C)C2(C)CCS(=O)(=O)C2)cc1 (stereo unspecified)	inconclusive [inhibitor, single point]
CC(O)(c1ccccc1)C(c1ccccc1)C1CCCCN1 (stereo unspecified)	inactive
CCn1nc(NC(=O)c2cccs2)c2cc3ccccc3nc21	active: 25.1 µM
O=C(Nc1cccc(S(=O)(=O)N2CCCC2)c1)c1cccc(OC(F)F)c1	inconclusive [inhibitor, partial curve]
CCOc1cc(C(=O)NC(C)CCc2ccccc2)cc(OCC)c1OCC (stereo unspecified)	inconclusive [inhibitor, partial curve]
CCc1cc(C(=O)N(CC)CC(=O)Nc2ccc(OC)cc2)sc1C	inconclusive [inhibitor, single point]
S=C(NCCC(c1ccccc1)c1ccccc1)Nc1ccc(Cl)cc1	inconclusive [inhibitor, partial curve, poor fit]
COc1ccccc1NC(=O)c1nnn(CC(=O)Nc2cc(C)cc(C)c2)c1N	inactive
Cc1ccc(Cl)cc1N1CCN(C(=O)C2CCC(=O)N(C3CCCCCC3)C2)CC1 (stereo unspecified)	inconclusive [inhibitor, full curve]
COc1nc(-c2cccc([N+](=O)[O-])c2)nc2ccccc12	inconclusive [inhibitor, partial curve]
CCc1ccc(NC(=O)c2ccc(Cn3cc([N+](=O)[O-])cn3)cc2)cc1	inconclusive [inhibitor, single point]
CCOC(=O)c1cc(C)n(S(=O)(=O)c2ccc(C)cc2)c1C	inconclusive [inhibitor, single point]
c1cc(Nc2ncnc3sccc23)cc(-c2nnc3n2CCCCC3)c1	active: 10 µM
CCOC(=O)c1cc(-c2ccccc2)sc1NC(=O)c1cc(OC)c(OC)c(OC)c1	inconclusive [inhibitor, single point]
C#Cc1ccc([C@H]2C=C(C(=O)NCc3nc4ccccc4[nH]3)O[C@@H](OCC)[C@@H]2CCCO)cc1	inconclusive [inhibitor, partial curve]
O=C(N/C(=C\c1ccc(Br)cc1)C(=O)N1CCOCC1)c1ccc([N+](=O)[O-])cc1	inactive
CCCc1cc(C(=O)N2CCCC(N3CCN(c4ccccc4F)CC3)C2)n(C)n1 (stereo unspecified)	inconclusive [inhibitor, partial curve]
CCc1cc(-c2nc(N)ncc2-c2ccc(Br)cc2)c(O)cc1OC	inconclusive [inhibitor, single point]
COc1ccc(CCN(C)C(=O)COc2cccc(-n3cnnn3)c2)cc1OC	inconclusive [inhibitor, single point]

Compound	Potency
COC(=O)c1ccc(NC(=O)C2CCCO2)cc1 (stereo unspecified)	inactive
NC(=O)CN(N=Nc1cccc([N+](=O)[O-])c1)c1cccc([N+](=O)[O-])c1	inconclusive [inhibitor, partial curve]
CC(=O)N1CCN(S(=O)(=O)c2c(C)n(C)c(=O)n(C)c2=O)CC1	inactive
COc1cc(NC(=O)c2cccc(Cl)c2)c(OC)cc1NC(=O)CN1CCCCC1	active: 35.5 µM
Cc1ccc(S(=O)(=O)N[C@H](C(=O)OCn2nnc3ccccc3c2=O)C(C)C)cc1	inconclusive [inhibitor, partial curve]
Nc1nnnn1/N=C/c1ccccc1OCc1ccc(Cl)cc1Cl	inconclusive [inhibitor, single point]
O=C1OC(c2ccc(O)cc2)(c2ccc(O)cc2)c2ccccc21	inconclusive [inhibitor, partial curve]
c1ccc(OCCN2CCN(Cc3nc(-c4ccc5c(c4)OCO5)no3)CC2)cc1	inconclusive [inhibitor, partial curve, poor fit]
COc1ccc(CNC(=O)c2c(N)n(CCCN3CCOCC3)c3nc4ccccc4nc23)cc1	inconclusive [inhibitor, single point]
COC(=O)c1cnc(Nc2cccc(C(F)(F)F)c2)c([N+](=O)[O-])c1	inconclusive [inhibitor, full curve, poor fit]
Cc1ccc([N+](=O)[O-])cc1S(=O)(=O)Nc1ccc(C(=O)N(C)C)cc1	inactive
COc1cc(C(=O)O/N=C(\N)c2ccc([N+](=O)[O-])cc2)cc(OC)c1OC	inconclusive [inhibitor, full curve]
COc1ccc(NC(=O)c2cc3ccccc3cc2O)cc1	inconclusive [inhibitor, single point]
COC(=O)c1cc(NC(=O)c2c(Cl)cnn2C)cc(C(=O)OC)c1	inconclusive [inhibitor, single point]
C=C1CCN([C@@H](Cc2ccccc2)C(=O)NCCC(C)C)S(=O)(=O)c2ccccc21	inconclusive [inhibitor, single point]
COc1cccc(CN(C)CC(O)COc2cc(Cl)ccc2Cl)c1 (stereo unspecified)	inconclusive [inhibitor, single point]
COc1ccc(C(=O)NNC2=Nc3cccc4cccc2c34)cc1	inconclusive [inhibitor, single point]
COc1cc(OC)c2c(=O)cc(-c3ccccc3)oc2c1	inconclusive [inhibitor, single point]
COc1c2c(cc3c1OCO3)CC[N+](C)=C2	inconclusive [inhibitor, single point]
CCOc1ccc(NS(=O)(=O)c2ccc3[nH]c(=O)oc3c2)cc1	inconclusive [inhibitor, single point]
